# Measured values from the supplement of paper PMC7826260.
# The other results are listed elsewhere or left out. Viral Rep nickase domains cut single-stranded DNA in vitro at 3 µM enzyme and 37 °C for 1 h; the strands have 90 letters, of which the middle is given. The score is log2 (uncut reads / reads without enzyme); strong cutting gives strongly negative numbers. There is no active / inactive call. Shares of all reads are compared; values above 0 arise when much of the pool is cut.
# Tests used:
# Assay in all cases: uncleaved DNA left, log2 of reads against the no-enzyme library (log2 ratio); higher = less cleavage (more negative = more Rep cleavage of the k-mer); sequences stand for … in CTCGTCCG…ACCGGAGA
# [1] = tested on: T1, Rep nickase domain of Muscovy duck circovirus
# T1 sequence (protein, residues 1-111, tag omitted): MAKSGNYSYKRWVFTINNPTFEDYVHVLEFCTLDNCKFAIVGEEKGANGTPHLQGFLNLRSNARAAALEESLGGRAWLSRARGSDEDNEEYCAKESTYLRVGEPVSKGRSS
# Procedure: (§1)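 A pool of 90-nt single-stranded DNAs with seven random bases just before the constant AC of the nick site (name = the seven bases) was cut by 3 µM recombinant His6-SUMO-tagged Rep nickase domain (300 nM DNA, 50 mM HEPES pH 8.0, 50 mM NaCl, 1 mM MnCl2, 1 h, 37 °C, three replicates). Uncut DNA was amplified and sequenced.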
# [2] = tested on: T2, Rep nickase domain of banana bunchy top virus
# T2 sequence (protein, residues 1-94, tag omitted): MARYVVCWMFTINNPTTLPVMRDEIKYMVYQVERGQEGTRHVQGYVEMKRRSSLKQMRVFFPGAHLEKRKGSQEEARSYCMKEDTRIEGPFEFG
# Procedure: as §1
# [3] = tested on: T3, Rep nickase domain of cabbage leaf curl virus
# T3 sequence (protein, residues 1-116, tag omitted): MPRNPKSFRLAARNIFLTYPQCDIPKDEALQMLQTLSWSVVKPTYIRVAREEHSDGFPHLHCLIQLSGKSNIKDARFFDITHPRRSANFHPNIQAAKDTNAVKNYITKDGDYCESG
# Procedure: as §1
# [4] = tested on: T4, Rep nickase domain of chickpea chlorotic dwarf virus
# T4 sequence (protein, residues 1-124, tag omitted): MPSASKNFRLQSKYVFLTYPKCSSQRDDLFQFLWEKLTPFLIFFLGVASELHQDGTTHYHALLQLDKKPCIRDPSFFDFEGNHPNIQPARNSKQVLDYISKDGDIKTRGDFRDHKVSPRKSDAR
# Procedure: as §1
# [5] = tested on: T5, Rep nickase domain of faba bean necrotic yellows virus
# T5 sequence (protein, residues 1-98, tag omitted): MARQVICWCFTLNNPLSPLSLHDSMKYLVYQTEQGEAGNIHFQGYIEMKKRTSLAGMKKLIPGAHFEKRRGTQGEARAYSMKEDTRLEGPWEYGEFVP
# Procedure: as §1
# [6] = tested on: T6, Rep nickase domain of maize striate mosaic virus
# T6 sequence (protein, residues 1-117, tag omitted): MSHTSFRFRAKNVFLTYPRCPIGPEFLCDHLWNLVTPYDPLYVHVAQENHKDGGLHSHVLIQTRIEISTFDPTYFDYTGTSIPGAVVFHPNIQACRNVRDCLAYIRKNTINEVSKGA
# Procedure: as §1
# [7] = tested on: T7, Rep nickase domain of porcine circovirus 2
# T7 sequence (protein, residues 2-116, tag omitted): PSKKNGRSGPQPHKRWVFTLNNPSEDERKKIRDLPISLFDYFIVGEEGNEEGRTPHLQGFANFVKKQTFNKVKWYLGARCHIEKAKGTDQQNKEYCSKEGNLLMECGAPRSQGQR
# Procedure: as §1
# [8] = tested on: T8, Rep nickase domain of tomato golden mosaic virus
# T8 sequence (protein, residues 1-124, tag omitted): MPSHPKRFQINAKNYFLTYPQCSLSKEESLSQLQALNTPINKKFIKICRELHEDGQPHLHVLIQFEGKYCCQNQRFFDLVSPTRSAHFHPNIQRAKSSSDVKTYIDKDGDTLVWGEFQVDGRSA
# Procedure: as §1
# [9] = tested on: T9, Rep nickase domain of tomato yellow leaf curl virus
# T9 sequence (protein, residues 1-136, tag omitted): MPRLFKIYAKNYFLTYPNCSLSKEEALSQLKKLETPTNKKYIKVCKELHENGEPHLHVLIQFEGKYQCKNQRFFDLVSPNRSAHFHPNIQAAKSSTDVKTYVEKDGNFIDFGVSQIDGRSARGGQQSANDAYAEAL
# Procedure: as §1
# [10] = tested on: T10, Rep nickase domain of wheat dwarf virus
# T10 sequence (protein, residues 1-137, tag omitted): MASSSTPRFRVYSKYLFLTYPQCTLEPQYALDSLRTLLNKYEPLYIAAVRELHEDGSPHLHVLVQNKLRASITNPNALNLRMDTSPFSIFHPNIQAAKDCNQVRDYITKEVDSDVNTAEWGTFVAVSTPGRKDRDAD
# Procedure: as §1
Sequence,uncleaved DNA left (log2) [1],uncleaved DNA left (log2) [2],uncleaved DNA left (log2) [3],uncleaved DNA left (log2) [4],uncleaved DNA left (log2) [5],uncleaved DNA left (log2) [6],uncleaved DNA left (log2) [7],uncleaved DNA left (log2) [8],uncleaved DNA left (log2) [9],uncleaved DNA left (log2) [10]
TAGAGCT,0.0598,-0.142,-0.618,-2.04,0.0284,-0.655,-3.17,-0.00241,0.158,-0.0403
CTCCTTG,-0.0791,0.0259,-0.723,-1.5,-0.0932,-1.12,0.162,-0.02,0.0336,-0.0436
GGTAATC,0.157,0.23,0.715,1.57,0.0832,2.03,0.307,0.0574,0.136,0.313
CTTTTGT,-0.376,-0.118,-0.383,-0.958,-0.0813,-1.04,-0.514,-0.00534,0.0396,-0.0899
ATTTGAC,0.0952,-0.128,-0.0205,-0.19,0.00895,-0.804,0.0761,0.0323,-0.017,-0.008
CCAATTA,0.0284,0.0201,0.0789,-1.16,0.15,-0.666,0.109,0.227,-0.0345,0.197
GAACGGA,0.19,0.168,0.293,0.73,0.0776,0.393,0.255,0.188,0.0341,0.137
GGCGAAT,-0.12,-0.128,0.324,1.08,-0.0374,1.76,-0.0149,0.037,-0.0339,0.0529
GTGAGTA,0.0196,0.144,0.295,0.885,0.0666,1.73,0.0726,0.109,0.152,0.17
GTGGCCT,-0.000896,-0.222,0.369,1.16,-0.0202,1.86,-0.00477,-0.111,-0.0874,0.0256
CCCCGGT,-0.0974,-0.0161,0.514,1.6,-0.119,1.55,-0.12,0.161,-0.0918,-0.0349
AGCACGG,-0.0747,0.0597,0.0996,0.674,0.144,1.71,0.147,0.082,0.0366,0.00975
ATCATGT,0.0219,-0.102,-0.404,-0.618,-0.0698,-1.14,0.0139,-0.116,-0.0371,-0.0524
GCTCTAA,0.0367,0.152,0.133,0.617,-0.0189,0.464,0.067,0.079,0.125,0.0754
ACATGTC,0.0388,-0.0526,-0.391,-0.426,0.0423,-0.985,0.0658,-0.0333,-0.0772,-0.0933
ATGGCTG,-0.00402,0.0492,0.299,1.22,0.0279,1.59,0.111,0.0887,-0.217,-0.0239
AAGAGAC,0.0133,-0.0254,0.346,0.915,0.00877,0.734,0.148,0.0884,-0.0786,0.0921
TTAGCGA,0.0811,-0.139,-0.83,-0.288,0.0366,-0.973,0.101,-0.164,-0.0643,-0.0683
CAGTACA,-0.145,-0.392,-0.217,-2.43,-0.629,-0.712,-2.5,-0.149,0.0844,-0.0499
TACCTCC,-0.0164,-0.0253,-0.0599,-1.23,0.00633,0.543,-0.461,-0.0491,-0.0878,-0.0958

Sequence,uncleaved DNA left (log2) [1],uncleaved DNA left (log2) [2],uncleaved DNA left (log2) [3],uncleaved DNA left (log2) [4],uncleaved DNA left (log2) [5],uncleaved DNA left (log2) [6],uncleaved DNA left (log2) [7],uncleaved DNA left (log2) [8],uncleaved DNA left (log2) [9],uncleaved DNA left (log2) [10]
ATAAGCT,-0.0507,-0.0588,-2.6,-2.61,-0.0181,-0.796,0.0396,-0.116,-0.102,-0.344
GGTAAAC,-0.0607,0.0603,0.505,1.28,-0.0844,1.83,0.13,0.00529,-0.00546,0.0863
GCAGTGA,0.0117,0.0607,-0.15,-0.0577,0.0612,-0.519,0.103,0.148,-0.00978,-0.014
CGTTTGC,-0.0435,-0.0433,-0.658,-0.482,-0.0694,-1.11,0.156,-0.0673,0.0509,-0.0405
ATCCATG,0.119,0.0266,-0.569,-0.49,0.0853,-0.878,0.211,0.0545,0.0814,-0.01
ATCCTCA,-0.0533,0.115,-0.0192,-0.795,0.0578,-0.334,0.0496,-0.022,0.111,0.0777
GCTTCAG,-0.0148,0.0351,-0.263,-0.199,-0.0754,-0.824,0.0503,0.109,0.0514,-0.0711
CCAGGGC,-0.0938,-0.022,-0.129,0.000857,0.0109,-0.619,0.0563,-0.157,-0.1,-0.0892
GTGGCGA,0.00682,-0.0387,-0.148,0.193,-0.0833,-0.0508,0.0141,-0.0196,-0.0467,-0.0288
AGACCCA,-0.0377,0.0923,0.389,0.875,-0.106,2.06,0.0295,0.0928,-0.0108,-0.138
CGTTCTA,-0.0192,0.0464,0.113,-0.28,-0.0616,-0.0292,-0.201,0.00649,0.0849,-0.0487
CCCATAT,-0.171,-0.168,-0.239,-0.673,-0.118,-0.747,-0.251,-0.0102,-0.122,-0.14
AGAAGGC,0.0132,0.0772,-0.0108,0.13,0.0865,-0.717,0.075,0.0279,0.0313,-0.0113
TGGAATT,0.102,-0.0125,0.634,0.689,-0.0207,1.93,-0.371,-0.056,0.0594,0.288
TAGTATG,-0.159,-0.265,-0.486,-0.688,-0.111,-0.868,-1.77,-0.111,-0.0555,-0.205
AGCTAAA,0.0593,0.121,-0.0917,0.434,0.0277,0.292,-0.202,0.0616,0.0109,0.082
GTCCGCA,-0.0286,0.011,0.294,0.67,0.0511,1.02,0.0559,0.108,-0.0245,-0.011
TTCGGTT,0.047,0.0236,0.0441,-0.647,-0.12,0.611,-0.092,-0.121,-0.134,-0.0912
CGCCGTA,-0.267,-0.113,-0.196,-0.481,-0.201,-0.347,-0.129,-0.168,-0.171,-0.124
ACCATGC,-0.101,0.122,-0.166,0.775,0.17,0.207,0.12,-0.00717,0.0777,-0.0466

Sequence,uncleaved DNA left (log2) [1],uncleaved DNA left (log2) [2],uncleaved DNA left (log2) [3],uncleaved DNA left (log2) [4],uncleaved DNA left (log2) [5],uncleaved DNA left (log2) [6],uncleaved DNA left (log2) [7],uncleaved DNA left (log2) [8],uncleaved DNA left (log2) [9],uncleaved DNA left (log2) [10]
CAGTCAC,0.00112,-0.184,-0.228,-0.478,-0.0849,-0.703,-2.61,-0.0998,-0.131,0.0331
GCAGTGG,0.0151,-0.0128,-0.294,-0.149,0.207,-0.677,0.17,0.102,0.0501,-0.0497
CACGTGC,0.0295,-0.0947,-0.628,-0.556,-0.0238,-1.12,0.0439,0.0102,0.00746,0.0236
TCGCTTT,-0.191,-0.335,-0.246,-2.05,-0.187,-0.684,-1.12,-0.417,-0.107,-0.418
CACGATA,-0.0846,0.00359,-0.285,-2.18,0.026,-0.574,-0.116,-0.0118,-0.171,-0.12
CGAGGGG,-0.0491,0.0163,0.166,0.64,-0.0419,0.424,0.142,-0.0297,-0.0238,0.00782
TCGTTTA,0.0579,0.0309,0.129,-1.01,0.0124,-0.254,-0.57,0.0271,0.0265,0.043
CGACGCC,0.0771,0.0189,0.0616,0.667,-0.0664,1.49,0.0657,-0.0246,-0.0379,0.114
GGGGACA,-0.0781,0.0958,0.867,2.07,-0.0693,2.27,0.108,0.0385,-0.0627,0.117
AATCGCC,-0.00703,-0.0576,-0.229,-0.242,-0.0102,-0.632,0.0634,-0.00564,0.0493,-0.00892
TATTTCC,-2.57,-0.313,0.0783,-0.778,0.00709,-0.386,-0.489,-0.051,0.0809,-0.0256
GGACCGA,0.121,0.146,0.693,1.55,0.0549,1.86,0.214,0.108,0.0618,0.241
AATCCTA,-0.166,0.0242,-0.0904,-1.99,-0.0956,-0.732,-0.321,-0.0278,0.0175,-0.0987
TGTGTTG,-0.0101,-0.134,-0.298,-0.455,0.0766,-0.783,0.136,0.00796,-0.0553,-0.132
TATTTCT,-3.84,-3.95,-2.15,-3.06,-0.306,-0.805,-3.99,-0.721,0.0834,-0.759
CTGCAAG,0.118,0.00411,-0.846,-0.399,0.0678,-1.2,0.155,-0.078,0.129,-0.152
AATATAA,-0.06,0.0303,-0.215,-0.439,-0.00869,-0.594,-0.117,0.0113,-0.00583,0.0216
TGTAGAA,0.128,0.0106,0.286,0.151,0.0442,0.0896,0.0699,0.169,0.00689,0.00723
ATCCTGT,-0.0462,-0.128,-0.24,-0.39,-0.178,-0.476,-0.0868,-0.087,-0.185,-0.0157
AATAAAT,0.02,-0.0656,-0.0598,-1.05,-0.0183,-0.171,-2.59,0.109,-0.0455,-0.00751
